SMILES strings stand for the structures. The whole screen tested about 45,000 compounds, of which about 65 (0.1%) were called active. The call rests on the fitted dose curve; in most records, active means well fitted activation curve with a large enough effect; inconclusive means small, poorly fitted or top-dose-only effect; inactive means no such curve, though single readings can be large or run the other way. Some of the results follow.

The target in this test is Galactocerebrosidase (Homo sapiens) (UniProt P54803). The test can be described thus: A Novel Cell-Based Assay to Identify Small Molecules for B -Galactocerebrosidase. Further: 0% is about no effect; nearly all actives have a fitted effect of over 65% in size. Conditions: 145M-Twi-hGALC-G270D cells (Twitcher mouse brain line with human GALC G270D), HMU-beta-Gal fluorescence, 48 h; series mostly up to 57.5 µM; activation: at the top concentration. The procedure, abridged: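 Fluorogenic HMU-b-Gal hydrolysis (0.1 mM final, pH 5.2 citrate-phosphate with 1 mg/mL sodium taurocholate; carbonate stop buffer) measures mutant GALC activity after compound treatment of live 145M-Twi Twitcher brain cells stably carrying human GALC-G270D, with wild-type GALC line alongside; activation sought.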
UniProt P54803, sequence (P54803 whole entry, looked up): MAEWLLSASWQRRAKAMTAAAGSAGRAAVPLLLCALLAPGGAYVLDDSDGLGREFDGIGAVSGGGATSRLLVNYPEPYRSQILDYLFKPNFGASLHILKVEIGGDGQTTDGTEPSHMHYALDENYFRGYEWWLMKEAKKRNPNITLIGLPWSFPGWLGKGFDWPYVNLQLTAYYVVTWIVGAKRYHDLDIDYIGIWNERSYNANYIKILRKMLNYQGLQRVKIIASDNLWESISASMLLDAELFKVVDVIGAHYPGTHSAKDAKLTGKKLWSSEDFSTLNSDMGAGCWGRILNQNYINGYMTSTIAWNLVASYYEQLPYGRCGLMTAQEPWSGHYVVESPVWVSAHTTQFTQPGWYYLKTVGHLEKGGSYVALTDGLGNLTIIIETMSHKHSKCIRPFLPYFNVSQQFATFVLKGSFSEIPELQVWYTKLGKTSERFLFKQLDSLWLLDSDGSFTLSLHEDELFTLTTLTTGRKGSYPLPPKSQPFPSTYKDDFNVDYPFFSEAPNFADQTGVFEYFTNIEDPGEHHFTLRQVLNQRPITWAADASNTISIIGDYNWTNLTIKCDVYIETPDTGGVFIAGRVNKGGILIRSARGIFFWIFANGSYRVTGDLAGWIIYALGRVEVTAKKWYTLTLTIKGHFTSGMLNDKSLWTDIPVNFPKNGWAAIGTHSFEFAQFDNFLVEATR
For `CCCOc1cccc(C2c3c(oc4cc(C)c(C)cc4c3=O)C(=O)N2CCCN2CCOCC2)c1` (configuration not stated), the “activation” value is inactive: -8.74%.

Take `CCC(=O)N1CCc2cc(S(=O)(=O)NC(C(=O)NCCc3ccc(C)cc3)C(C)C)ccc21` (configuration not stated): the “activation” value was inactive: 2.17%.

Regarding `COc1ccc(N2CCN(Cc3nc(-c4ccc(C)cc4)no3)CC2)cc1`, the “activation” value is inactive: -13.5%.

Regarding `CCOc1cc2[nH]c(=O)n(CCCCCC(=O)NC(C)CC)c(=O)c2cc1OCC` (configuration not stated), the “activation” value is inactive: -10.5%.

Regarding `CC(C)c1nn2c(=O)cc(COC(=O)c3ccccc3Cl)nc2s1`, the “activation” value was inactive: -9.11%.

Regarding `CC(C)CCNC(=O)c1ccc2c(c1)N(C)C(=O)c1ccccc1S2`, the “activation” value is inactive: -1.2%.

Consider `CC1CCN(S(=O)(=O)c2cn(CC(=O)Nc3ccc(F)cc3)c(=O)c3ccccc23)CC1`, for which the “activation” value is inactive: -5.07%.

For `CO[C@@H]1[C@@H](OC)[C@H](C)[C@@](O)(CC(=O)O)O[C@H]1[C@H](C)[C@H]1O[C@@]2(CC[C@@](C)([C@H]3CC[C@@](C)([C@@H]4O[C@@H]([C@H]5O[C@](C)(O)[C@H](C)C[C@@H]5C)C[C@@H]4OC4C[C@H](OC)[C@@H](OC)[C@H](C)O4)O3)O2)C[C@H](O)[C@H]1C` (some centres not stated), the “activation” value was inactive: -4.66%.

On to `COc1ccc(-c2csc(-c3c(N)c(C(=O)c4ccccc4)n4ccccc34)n2)cc1`, for which the “activation” value was inactive: -22.1%.

Regarding `O=C(NCc1ccccc1Cl)C1CCN(c2ncnc3c2nc2n3CCCCC2)CC1`, the “activation” value was inactive: -0.25%.

As for `Cc1nnc(NC(=O)CSCc2cc(=O)c3ccc(C)c(C)c3[nH]2)s1`, the “activation” value was inactive: -29.9%.

As to `Cc1cc(C)n2c(Nc3cccc(C(F)(F)F)c3)c(-c3ccsc3)nc2n1`, the “activation” value is inactive: -14.3%.

Regarding `O=C(O)CCn1ccc2cc(S(=O)(=O)N3CCCCC3)ccc21`, the “activation” value was inactive: -2.06%.

As for `COc1ccc(Cl)cc1NC(=O)CCCS(=O)(=O)c1nc(-c2ccc(OC)c(OC)c2)cc(C(F)(F)F)n1`, the “activation” value was inactive: -28.1%.

On to `CCC(Cc1ccccc1)NC(=O)Cn1ncc2c3ccccc3n(Cc3ccc(F)cc3)c2c1=O` (configuration not stated), for which the “activation” value is inactive: -11.8%.

For `CCn1cc2nc(SCc3cccc(F)c3)n(CCc3ccccc3)c(=O)c2n1`, the “activation” value was inactive: -27.4%.

`Cc1cc(C)cc(-n2ccnc2SCC(=O)Nc2ccc(C)c(Cl)c2)c1`: the “activation” value was inactive: -21.4%.

For `O=C(CN1CCN(c2ccc(Cl)cc2)CC1)Nc1ccc(F)c(F)c1`, the “activation” value was inactive: -25.1%.

As to `O=C(Cn1nnnc1-c1ccccc1F)Nc1ccc(F)c(F)c1`, the “activation” value is inactive: 7.7%.

On to `CCC(=O)N1c2ccccc2CC1C(=O)NCCc1ccc(Cl)cc1` (configuration not stated), for which the “activation” value is inactive: -13.4%.

On to `COc1ccc(NC(=O)c2[nH]nc3c2CSc2ccccc2-3)c(OC)c1`, for which the “activation” value is inactive: -7.85%.

Consider `CCOc1ccccc1NC(=O)c1nnn(CC(=O)Nc2ccccc2CC)c1N`, for which the “activation” value is inactive: -8.53%.

For the compound `Cc1ccc(-n2nc3c(N4CCC(C(=O)NCCC(C)C)CC4)nnc(C)c3c2C)cc1`, the “activation” value was inactive: 1.72%.

For `CC(C)c1ccc(S(=O)(=O)c2cnc(SCC(=O)Nc3ccc(F)cc3F)nc2N)cc1`, the “activation” value was inactive: -4.95%.

Regarding `Cc1ccc2oc(=O)c3cc(C(=O)Nc4cccc(C#N)c4)sc3c2c1`, the “activation” value is inactive: -15.7%.

In the case of `Fc1ccc(N2CCN(c3ncnc4c3nc3n4CCCC3)CC2)cc1`, the “activation” value is inactive: 3.63%.

Consider `CCOc1ccc(NC(=O)CS(=O)(=O)Cc2nc(-c3ccc(C)cc3)oc2C)cc1`, for which the “activation” value was inactive: -19.5%.

`COc1ccc(C2CC(=O)Oc3c2c(=O)n(C)c2ccccc32)c(OC)c1OC` (configuration not stated): the “activation” value was inactive: -2.48%.

With `O=C(COc1ccccc1)Nc1ccc2nc(SCC(=O)N3CCCC3)sc2c1`, the “activation” value was inactive: -4.05%.

Regarding `CCCCOc1ccc(CC(=O)NO)cc1`, the “activation” value was inactive: -23.3%.

For `COc1ccc(OC)c2sc(N(CCCN(C)C)C(=O)c3ccco3)nc12`, the “activation” value is inactive: 11.2%.

As for `CC(=O)OC(C)C[N+](C)(C)C` (configuration not stated), the “activation” value is inactive: -37.1%.

Regarding `COc1ccc(C2c3c(oc4ccccc4c3=O)C(=O)N2c2nc(C)c(C)s2)cc1` (configuration not stated), the “activation” value is inactive: 2.36%.

Consider `O=c1c2oc3ccccc3c2ncn1Cc1ccc(Br)cc1`, for which the “activation” value was inactive: 2.68%.

As to `Oc1c(Cl)cc(Cl)cc1Sc1cc(Cl)cc(Cl)c1O`, the “activation” value was inactive: -6.02%.

Take `CCOC(=O)c1ccc(NC(=O)c2ccc(-c3cccc(Cl)c3C)o2)cc1`: the “activation” value was inactive: -6.62%.

On to `CCOc1ccc(CCNC(=O)c2cc3c(-c4ccccc4F)nn(C)c3s2)cc1OCC`, for which the “activation” value is inactive: -2.09%.

For the compound `COc1ccc(C2c3c(-c4ccc(F)cc4)n[nH]c3C(=O)N2c2ccccc2)cc1OC` (configuration not stated), the “activation” value was inactive: -17.5%.

For the compound `Cc1ccccc1CNC(=O)CCSCc1cnn(-c2ccccc2)c1-n1cccc1`, the “activation” value is inactive: -13.1%.

In the case of `C=CCc1ccccc1OCC(O)CNC(C)C` (configuration not stated), the “activation” value is inactive: -11.8%.

Consider `CCc1ccc(NC(=O)CSc2nc3ccccc3c(=O)n2CCC(=O)NC2CCCCC2)cc1`, for which the “activation” value was inactive: -7.95%.

For the compound `COC(=O)c1cc(C)nc2c1c(=O)nc(SCc1c(C)cc(C)cc1C)n2C1CC1`, the “activation” value was inactive: -8.69%.

In the case of `Cc1ccc(S(=O)(=O)N(CC(=O)Nc2c(C)cccc2C)c2cccc(Cl)c2)cc1`, the “activation” value is inactive: -30.2%.

Regarding `O=C(Cn1cc(S(=O)(=O)Cc2ccccc2Cl)c2ccccc21)Nc1cccc(C(F)(F)F)c1`, the “activation” value was inactive: 7.75%.

On to `Cc1nc2nc(C)c(CCC(=O)NCCc3ccccc3)c(C)n2n1`, for which the “activation” value is inactive: -24.1%.

Take `Cc1ccc2nc(CN3CCN(S(=O)(=O)c4ccccc4)CC3)oc2c1`: the “activation” value was inactive: -5.79%.

Regarding `CC(C)Oc1cccc(C(=O)Nc2ccc3oc(-c4ccccc4)nc3c2)c1`, the “activation” value is inactive: -13.5%.
